According to patent US20120220530A1 (NOVOZYMES BIOPHARMA DK A S, published 2012):
Blank lines part the entries; values can stand above or below the binder they belong to.

How the values were obtained:
[1] = target: T1, glutathione-S-transferase (GST)-fused shFcRn (human, UniProt P55899 partial chain; P61769 partial chain, limits assumed); test: SPR, immobilized shFcRn, pH 5.5
T1 construct: Made as in Berntzen et al. 2005 / FEBS J. 2008; also called shFcRn-GST; GST-tagged shFcRn; not shown: GST tag
Procedure: SPR experiments were carried out using a Biacore 3000 instrument (GE Healthcare).

[2] = target: T1, glutathione-S-transferase (GST)-fused …; test: SPR, immobilized shFcRn (~1500 RU), 1:1 model

fold lower KD than the parent HSA [1]: > 10 fold
B1: HSA K573F (ligand)
chain: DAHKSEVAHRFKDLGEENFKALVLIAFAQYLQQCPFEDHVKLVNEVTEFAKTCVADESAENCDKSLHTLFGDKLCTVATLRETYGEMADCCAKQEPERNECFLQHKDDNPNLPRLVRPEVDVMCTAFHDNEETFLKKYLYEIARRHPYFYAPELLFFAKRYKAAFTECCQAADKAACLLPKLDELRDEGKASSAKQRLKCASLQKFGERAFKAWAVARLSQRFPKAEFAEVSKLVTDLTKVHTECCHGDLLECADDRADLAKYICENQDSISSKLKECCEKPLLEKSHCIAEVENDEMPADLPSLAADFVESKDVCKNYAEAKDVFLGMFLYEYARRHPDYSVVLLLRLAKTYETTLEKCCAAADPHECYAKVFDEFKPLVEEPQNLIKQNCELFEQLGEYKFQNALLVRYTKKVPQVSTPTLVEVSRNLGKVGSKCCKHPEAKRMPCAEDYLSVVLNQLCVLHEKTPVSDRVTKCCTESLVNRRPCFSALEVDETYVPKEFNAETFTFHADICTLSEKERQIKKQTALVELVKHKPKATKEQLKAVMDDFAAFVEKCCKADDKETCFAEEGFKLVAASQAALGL

fold lower KD than the parent HSA [1]: > 10 fold
B2: HSA K573Y (ligand)
chain: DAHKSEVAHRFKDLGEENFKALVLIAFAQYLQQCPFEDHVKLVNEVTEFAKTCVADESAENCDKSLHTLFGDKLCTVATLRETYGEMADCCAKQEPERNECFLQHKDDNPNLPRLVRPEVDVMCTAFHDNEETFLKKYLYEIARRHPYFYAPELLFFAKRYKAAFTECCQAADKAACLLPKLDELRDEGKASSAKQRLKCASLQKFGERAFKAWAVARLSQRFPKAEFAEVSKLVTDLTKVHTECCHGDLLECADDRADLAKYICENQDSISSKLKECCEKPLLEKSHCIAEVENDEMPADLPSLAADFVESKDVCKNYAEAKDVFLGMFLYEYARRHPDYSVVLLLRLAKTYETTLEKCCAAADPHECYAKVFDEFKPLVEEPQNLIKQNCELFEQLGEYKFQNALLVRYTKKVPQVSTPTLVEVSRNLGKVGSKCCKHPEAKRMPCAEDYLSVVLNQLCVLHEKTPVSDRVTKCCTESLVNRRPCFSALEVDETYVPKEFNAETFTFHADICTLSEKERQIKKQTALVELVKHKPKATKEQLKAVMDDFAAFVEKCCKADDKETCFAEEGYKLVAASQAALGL

fold lower KD than the parent HSA [1]: > 10 fold
B3: HSA K573H (ligand)
chain: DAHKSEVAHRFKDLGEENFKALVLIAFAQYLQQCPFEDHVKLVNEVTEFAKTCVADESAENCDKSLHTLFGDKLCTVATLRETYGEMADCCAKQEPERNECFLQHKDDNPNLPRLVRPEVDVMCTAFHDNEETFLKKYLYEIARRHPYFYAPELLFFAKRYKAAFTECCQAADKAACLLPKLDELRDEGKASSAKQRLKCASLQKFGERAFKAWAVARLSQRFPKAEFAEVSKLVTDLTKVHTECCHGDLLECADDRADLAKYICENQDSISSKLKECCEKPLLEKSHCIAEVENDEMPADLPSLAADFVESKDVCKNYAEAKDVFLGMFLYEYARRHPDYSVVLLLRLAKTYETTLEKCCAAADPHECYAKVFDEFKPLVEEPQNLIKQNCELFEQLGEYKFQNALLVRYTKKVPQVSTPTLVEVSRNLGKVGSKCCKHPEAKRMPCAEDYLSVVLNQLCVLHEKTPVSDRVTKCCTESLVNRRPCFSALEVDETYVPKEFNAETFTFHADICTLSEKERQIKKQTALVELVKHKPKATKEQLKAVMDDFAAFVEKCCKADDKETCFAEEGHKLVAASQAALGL

fold lower KD than the parent HSA [1]: > 10 fold
B4: HSA K573W (ligand)
chain: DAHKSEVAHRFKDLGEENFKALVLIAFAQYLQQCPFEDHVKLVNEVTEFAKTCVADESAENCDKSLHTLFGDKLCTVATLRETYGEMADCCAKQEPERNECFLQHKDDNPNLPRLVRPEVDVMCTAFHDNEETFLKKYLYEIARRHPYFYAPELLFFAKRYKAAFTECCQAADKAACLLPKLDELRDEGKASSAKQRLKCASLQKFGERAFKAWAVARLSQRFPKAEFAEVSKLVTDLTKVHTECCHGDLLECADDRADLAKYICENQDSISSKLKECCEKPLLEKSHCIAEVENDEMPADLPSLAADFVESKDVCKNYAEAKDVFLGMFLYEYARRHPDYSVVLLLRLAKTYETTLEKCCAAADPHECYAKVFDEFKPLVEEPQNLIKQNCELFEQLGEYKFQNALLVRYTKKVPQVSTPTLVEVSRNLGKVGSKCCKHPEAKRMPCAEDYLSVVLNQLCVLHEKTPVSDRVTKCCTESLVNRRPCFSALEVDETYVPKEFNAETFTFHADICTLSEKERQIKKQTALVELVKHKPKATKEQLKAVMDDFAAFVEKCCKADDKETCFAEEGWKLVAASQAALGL

Kd [2]: 600 nM
koff [2]: 0.0021 s⁻¹
kon [2]: 3300 M⁻¹ s⁻¹
B5: HSA with the sheep albumin C-terminus (ligand)
chain: DAHKSEVAHRFKDLGEENFKALVLIAFAQYLQQCPFEDHVKLVNEVTEFAKTCVADESAENCDKSLHTLFGDKLCTVATLRETYGEMADCCAKQEPERNECFLQHKDDNPNLPRLVRPEVDVMCTAFHDNEETFLKKYLYEIARRHPYFYAPELLFFAKRYKAAFTECCQAADKAACLLPKLDELR[about 200 residues not spelt out]NLIKQNCELFEQLGEYKFQNALLVRYTKKVPQVSTPTLVEVSRNLGKVGSKCCKHPEAKRMPCAEDYLSVVLNQLCVLHEKTPVSDRVTKCCTESLVNRRPCFSALEVDETYVPKEFNAETFTFHADICTLSEKERQIKKQTALVELVKHKPKATKEQLKAVMDDFAAFVEKCCKADDKETCFAEEGPKLVASTQAALA
notes: also called HSA-SheepC

Kd [2]: 400 nM
koff [2]: 0.0016 s⁻¹
kon [2]: 3500 M⁻¹ s⁻¹
B6: HSA with the rabbit albumin C-terminus (ligand)
chain: DAHKSEVAHRFKDLGEENFKALVLIAFAQYLQQCPFEDHVKLVNEVTEFAKTCVADESAENCDKSLHTLFGDKLCTVATLRETYGEMADCCAKQEPERNECFLQHKDDNPNLPRLVRPEVDVMCTAFHDNEETFLKKYLYEIARRHPYFYAPELLFFAKRYKAAFTECCQAADKAACLLPKLDELR[about 200 residues not spelt out]NLIKQNCELFEQLGEYKFQNALLVRYTKKVPQVSTPTLVEVSRNLGKVGSKCCKHPEAKRMPCAEDYLSVVLNQLCVLHEKTPVSDRVTKCCTESLVNRRPCFSALEVDETYVPKEFNAETFTFHADICTLSEKERQIKKQTALVELVKHKPKATKEQLKAVMDDFAAFVEKCCKADDKETCFAEEGPKLVESSKATLG
notes: also called HSA-RabC
